Experimental data reported in the supplement of paper PMC4967469.
By IC50 is meant the dose at which the fit gives 50% viability; fits outside the tested doses are given as limits. AUC is the area under the same curve over the 256-fold range up to the top dose, as a fraction; the more sensitive the line, the further below 1. For part of these data: The top dose, if marked as inferred, was derived from the fitted curves, not read from the paper. For part of these data: Drugs with an entry number were screened twice under separate entries, and the two screens often disagree.

How the values were obtained:
Assay in all cases: Viability of human cancer cell lines after 72 h of drug (GDSC screen)
[1] = compound: O=c1cc(-c2cccc3c2Sc2ccccc2S3)oc(N2CCOCC2)c1 [KU-55933]; conditions: top dose 10 µM
Description: (§1)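 Human cancer cell lines in 384-well plates, medium with 10% serum, drug for 72 h over a 256-fold dose range (nine 2-fold or five 4-fold steps up to the top dose). Adherent lines were fixed and stained with the nucleic acid dye Syto60, suspension lines read with resazurin; signal relative to control wells, capped at 0 and 100%. One two-parameter sigmoid per drug and line, fitted in a mixed model over all curves with the slope shared within a line.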

[2] = compound: C=CC(=O)Nc1cc(-n2c(=O)ccc3cnc4ccc(-c5cn[nH]c5)cc4c32)ccc1C [QL-X-138]; conditions: top dose 10.24 µM; top dose inferred
Description: as §1

[3] = compound: COc1cc(O)c2c(c1)/C=C/C[C@H](O)[C@H](O)C(=O)/C=C\C[C@H](C)OC2=O [(5Z)-7-Oxozeaenol]; conditions: top dose 10 µM; top dose inferred
Description: as §1

[4] = compound: COc1cc2ncnc(-n3nc(-c4ccccn4)nc3N)c2cc1OC [CP466722]; conditions: top dose 16 µM; top dose inferred
Description: as §1

[5] = compound: COc1nc(C)cnc1NS(=O)(=O)c1cccnc1-c1ccc(-c2nnco2)cc1 [Zibotentan]; conditions: top dose 20 µM; top dose inferred
Description: as §1

[6] = compound: COc1cc(N2CCC(O)CC2)ccc1Nc1cc(Nc2ccccc2S(=O)(=O)C(C)C)c2cc[nH]c2n1 [MPS-1-IN-1]; conditions: top dose 20 µM; top dose inferred
Description: as §1

[7] = compound: CCn1c(-c2nonc2N)nc2cnc(Oc3cccc(NC(=O)c4ccc(OCCN5CCOCC5)cc4)c3)cc21 [GSK269962A]; conditions: top dose 5 µM; screen: GDSC drug entry 1192; top dose inferred
Description: as §1

[8] = compound: C/C=C(/C)C(=O)O[C@H]1C(C)=C2[C@H]([C@@H]1OC(=O)CCCCCCC)[C@@](C)(OC(C)=O)C[C@H](OC(=O)CCC)[C@@]1(O)[C@H]2OC(=O)[C@@]1(C)O [Thapsigargin]; conditions: top dose 0.512 µM; top dose inferred
Description: as §1

[9] = compound: Cc1ccc(F)c(NC(=O)Nc2ccc(-c3cccc4[nH]nc(N)c34)cc2)c1 [ABT-869]; conditions: top dose 1.024 µM; top dose inferred
Description: as §1

[10] = compound: Cc1cnc(-c2cnc(NCCNc3ccc(C#N)cn3)nc2-c2ccc(Cl)cc2Cl)[nH]1 [CHIR-99021]
Description: as §1

[11] = top dose 10 µM, screen: GDSC drug entry 1241, top dose inferred
[12] = top dose 2.56 µM, screen: GDSC drug entry 154

Cell Line	AUC [1]	IC50 [1] [µM]	AUC [2]	IC50 [2] [µM]	AUC [3]	IC50 [3] [µM]	AUC [4]	IC50 [4] [µM]	AUC [5]	IC50 [5] [µM]	AUC [6]	IC50 [6] [µM]	AUC [7]	IC50 [7] [µM]	AUC [8]	IC50 [8] [µM]	AUC [9]	IC50 [9] [µM]	AUC [10, 11]	IC50 [10, 11] [µM]	AUC [10, 12]	IC50 [10, 12] [µM]
NCI-H522 (lung adenocarcinoma, adherent)	0.959	> 10	0.903	> 10.2	0.723	3.05	0.785	8.27	0.976	> 20	0.87	> 20	0.926	> 5	0.372	0.0133	0.975	> 1.02				
NCI-H2066 (small cell lung carcinoma, adherent)	0.975	> 10			0.927	> 10							0.969	> 5					0.974	> 10		
SK-CO-1 (large intestine, adherent)	0.953	> 10	0.989	> 10.2			0.989	> 16	0.989	> 20	0.825	11.1	0.666	0.876	0.328	0.011	0.989	> 1.02	0.952	> 10	0.965	> 2.56
SU-DHL-10 (B-cell lymphoma, suspension)	0.945	8.82	0.325	0.242	0.873	5.17	0.584	1.6	0.997	> 20	0.942	17.2	0.979	> 5			0.998	> 1.02	0.998	> 10	0.961	> 2.56
SW1088 (glioma, adherent)			0.878	> 10.2	0.788	5.87	0.829	14.3	0.979	> 20	0.972	> 20	0.628	0.785	0.652	0.0962	0.977	> 1.02	0.92	> 10	0.978	> 2.56
SW1463 (large intestine, adherent)			0.779	7.95	0.801	> 10	0.907	> 16	0.973	> 20	0.978	> 20	0.916	> 5	0.817	> 0.512	0.973	> 1.02	0.937	> 10	0.969	> 2.56
T-24 (bladder, adherent)			0.823	5.7	0.642	1.51	0.847	10.9	0.988	> 20	0.945	> 20	0.82	2.71	0.323	0.0105	0.987	> 1.02	0.913	> 10	0.966	> 2.56
